According to the supplement of paper PMC4967469:
A lower IC50 marks a more sensitive line; a fit beyond the top or the lowest dose is shown as a bound at that dose. AUC sums up the same curve from the lowest dose to the 256-fold higher top dose; the more sensitive the line, the further below 1. For some of these results: Where the top dose is marked as inferred, it was calculated from the reported fits. For some of these results: Where an entry number is given, a second screen of the drug exists; the two often differ.

Assays:
Assay in all cases: Viability of human cancer cell lines after 72 h of drug (GDSC screen)
[1] = compound: O=C(Nc1ccc(OC(F)(F)F)cc1)c1sccc1NCc1ccnc2ccccc12 [OSI-930]; settings: top dose 10.24 µM
Method: (§1)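 Human cancer cell lines in 384-well plates, medium with 10% serum, drug for 72 h over a 256-fold dose range (nine 2-fold or five 4-fold steps up to the top dose). Adherent lines were fixed and stained with the nucleic acid dye Syto60, suspension lines read with resazurin; signal relative to control wells, capped at 0 and 100%. One two-parameter sigmoid per drug and line, fitted in a mixed model over all curves with the slope shared within a line.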

[2] = compound: Cc1ccc(NC(=O)c2ccc(CN3CCN(C)CC3)cc2)cc1Nc1nc(-c2cccnc2)cs1 [Masitinib]; settings: top dose 20 µM
Method: as §1

[3] = compound: CC/C(=C(\c1ccccc1)c1ccc(OCCN(C)C)cc1)c1ccccc1 [Tamoxifen]; settings: top dose 5 µM
Method: as §1

[4] = compound: O=S(=O)(O)c1ccc2cc(N=Nc3cc(S(=O)(=O)O)c4cccnc4c3O)ccc2c1 [NSC-87877]; settings: top dose 16 µM; top dose inferred
Method: as §1

[5] = compound: O=C(Nc1cccc(Nc2ncc(Br)c(NCCc3cnc[nH]3)n2)c1)N1CCCC1 [BX-912]; settings: top dose 10.24 µM; top dose inferred
Method: as §1

[6] = compound: O=C(/C=C/c1ccc(CN(CCO)CCc2c[nH]c3ccccc23)cc1)NO [LAQ824]; settings: top dose 1.024 µM; top dose inferred
Method: as §1

[7] = compound: CCCC(=O)OCc1ccc(OC(=O)/C=C(C)/C=C/C=C(C)/C=C/C2=C(C)CCCC2(C)C)cc1 [VNLG/124]; settings: top dose 5.12 µM; top dose inferred
Method: as §1

[8] = compound: COc1cc(N2CCC(C(N)=O)CC2)ccc1Nc1nc(N)c(Cl)c(Nc2ccccc2S(=O)(=O)C(C)C)n1 [HG-5-88-01]; settings: top dose 10 µM; top dose inferred
Method: as §1

[9] = compound: Cc1c(N)nc([C@H](CC(N)=O)NC[C@H](N)C(N)=O)nc1C(=O)N[C@H](C(=O)N[C@H](C)[C@@H](O)[C@H](C)C(=O)N[C@H](C(=O)NCCc1nc(-c2nc(C(=O)NCCC[S+](C)C)cs2)cs1)[C@@H](C)O)[C@@H](OC1OC(CO)C(O)C(O)C1OC1OC(CO)C(O)C(OC(N)=O)C1O)c1cnc[nH]1 [Bleomycin]
Method: as §1

[10] = compound: CN(NC(=O)CC(=O)NN(C)C(=S)c1ccccc1)C(=S)c1ccccc1 [Elesclomol]; settings: top dose 0.2 µM; top dose inferred
Method: as §1

[11] = top dose 50 µM, screen: GDSC drug entry 1378, top dose inferred
[12] = top dose 64 µM, screen: GDSC drug entry 190

RO82-W-1 (thyroid, adherent)
AUC [1]: 0.979
IC50 [1]: > 10.2 µM
AUC [2]: 0.983
IC50 [2]: > 20 µM
AUC [3]: 0.978
IC50 [3]: > 5 µM
AUC [4]: 0.983
IC50 [4]: > 16 µM
AUC [5]: 0.937
IC50 [5]: > 10.2 µM
AUC [6]: 0.606
IC50 [6]: 0.136 µM
AUC [7]: 0.983
IC50 [7]: > 5.12 µM
AUC [8]: 0.892
IC50 [8]: > 10 µM
AUC [9, 11]: 0.518
IC50 [9, 11]: 3.54 µM
AUC [9, 12]: 0.855
IC50 [9, 12]: > 64 µM
AUC [10]: 0.595
IC50 [10]: 0.0245 µM

KYSE-450 (oesophagus, adherent)
AUC [1]: 0.988
IC50 [1]: > 10.2 µM
AUC [2]: 0.885
IC50 [2]: 19.7 µM
AUC [3]: 0.985
IC50 [3]: > 5 µM
AUC [4]: 0.965
IC50 [4]: > 16 µM
AUC [5]: 0.884
IC50 [5]: 10.1 µM
AUC [6]: 0.437
IC50 [6]: 0.0435 µM
AUC [7]: 0.964
IC50 [7]: > 5.12 µM
AUC [8]: 0.987
IC50 [8]: > 10 µM
AUC [9, 12]: 0.412
IC50 [9, 12]: 2.34 µM
AUC [10]: 0.556
IC50 [10]: 0.0176 µM

TE-5 (oesophagus, adherent)
AUC [1]: 0.978
IC50 [1]: > 10.2 µM
AUC [2]: 0.97
IC50 [2]: > 20 µM
AUC [3]: 0.974
IC50 [3]: > 5 µM
AUC [4]: 0.984
IC50 [4]: > 16 µM
AUC [5]: 0.951
IC50 [5]: > 10.2 µM
AUC [6]: 0.448
IC50 [6]: 0.0453 µM
AUC [7]: 0.982
IC50 [7]: > 5.12 µM
AUC [8]: 0.88
IC50 [8]: > 10 µM
AUC [9, 11]: 0.783
IC50 [9, 11]: 24.6 µM
AUC [9, 12]: 0.582
IC50 [9, 12]: 6.93 µM
AUC [10]: 0.529
IC50 [10]: 0.0152 µM

HuO9 (osteosarcoma, adherent)
AUC [1]: 0.942
IC50 [1]: > 10.2 µM
AUC [2]: 0.877
IC50 [2]: > 20 µM
AUC [3]: 0.972
IC50 [3]: > 5 µM
AUC [4]: 0.984
IC50 [4]: > 16 µM
AUC [5]: 0.732
IC50 [5]: 3.2 µM
AUC [6]: 0.906
IC50 [6]: > 1.02 µM
AUC [7]: 0.984
IC50 [7]: > 5.12 µM
AUC [8]: 0.847
IC50 [8]: 8.61 µM
AUC [9, 11]: 0.78
IC50 [9, 11]: 23.1 µM
AUC [9, 12]: 0.912
IC50 [9, 12]: > 64 µM
AUC [10]: 0.587
IC50 [10]: 0.0223 µM

HT55 (large intestine, adherent)
AUC [1]: 0.952
IC50 [1]: > 10.2 µM
AUC [2]: 0.99
IC50 [2]: > 20 µM
AUC [3]: 0.99
IC50 [3]: > 5 µM
AUC [4]: 0.939
IC50 [4]: > 16 µM
AUC [5]: 0.99
IC50 [5]: > 10.2 µM
AUC [6]: 0.618
IC50 [6]: 0.135 µM
AUC [7]: 0.985
IC50 [7]: > 5.12 µM
AUC [8]: 0.844
IC50 [8]: 7.11 µM
AUC [9, 11]: 0.963
IC50 [9, 11]: > 50 µM
AUC [9, 12]: 0.943
IC50 [9, 12]: > 64 µM
AUC [10]: 0.939
IC50 [10]: > 0.2 µM

IGR-1 (melanoma, adherent)
AUC [1]: 0.982
IC50 [1]: > 10.2 µM
AUC [2]: 0.884
IC50 [2]: 17 µM
AUC [3]: 0.99
IC50 [3]: > 5 µM
AUC [4]: 0.972
IC50 [4]: > 16 µM
AUC [5]: 0.658
IC50 [5]: 1.65 µM
AUC [6]: 0.355
IC50 [6]: 0.0268 µM
AUC [7]: 0.988
IC50 [7]: > 5.12 µM
AUC [8]: 0.954
IC50 [8]: > 10 µM
AUC [9, 11]: 0.8
IC50 [9, 11]: 20.8 µM
AUC [9, 12]: 0.404
IC50 [9, 12]: 2.25 µM
AUC [10]: 0.917
IC50 [10]: > 0.2 µM

D-542MG (glioma, adherent)
AUC [1]: 0.935
IC50 [1]: > 10.2 µM
AUC [2]: 0.956
IC50 [2]: > 20 µM
AUC [3]: 0.978
IC50 [3]: > 5 µM
AUC [4]: 0.982
IC50 [4]: > 16 µM
AUC [5]: 0.981
IC50 [5]: > 10.2 µM
AUC [6]: 0.577
IC50 [6]: 0.109 µM
AUC [7]: 0.984
IC50 [7]: > 5.12 µM
AUC [8]: 0.963
IC50 [8]: > 10 µM
AUC [9, 11]: 0.745
IC50 [9, 11]: 18.7 µM
AUC [9, 12]: 0.858
IC50 [9, 12]: > 64 µM
AUC [10]: 0.44
IC50 [10]: 0.00823 µM

LU-65 (large cell lung carcinoma, suspension)
AUC [1]: 0.961
IC50 [1]: > 10.2 µM
AUC [2]: 0.908
IC50 [2]: > 20 µM
AUC [3]: 0.982
IC50 [3]: > 5 µM
AUC [4]: 0.986
IC50 [4]: > 16 µM
AUC [5]: 0.864
IC50 [5]: > 10.2 µM
AUC [6]: 0.664
IC50 [6]: 0.2 µM
AUC [7]: 0.981
IC50 [7]: > 5.12 µM
AUC [8]: 0.957
IC50 [8]: > 10 µM
AUC [9, 11]: 0.966
IC50 [9, 11]: > 50 µM
AUC [9, 12]: 0.703
IC50 [9, 12]: 16.8 µM
AUC [10]: 0.957
IC50 [10]: > 0.2 µM

OVKATE (ovary, adherent)
AUC [1]: 0.979
IC50 [1]: > 10.2 µM
AUC [2]: 0.906
IC50 [2]: > 20 µM
AUC [3]: 0.977
IC50 [3]: > 5 µM
AUC [4]: 0.972
IC50 [4]: > 16 µM
AUC [5]: 0.949
IC50 [5]: > 10.2 µM
AUC [6]: 0.731
IC50 [6]: 0.465 µM
AUC [7]: 0.964
IC50 [7]: > 5.12 µM
AUC [8]: 0.936
IC50 [8]: > 10 µM
AUC [9, 11]: 0.975
IC50 [9, 11]: > 50 µM
AUC [9, 12]: 0.967
IC50 [9, 12]: > 64 µM
AUC [10]: 0.747
IC50 [10]: 0.106 µM

NB6 (neuroblastoma, adherent)
AUC [1]: 0.984
IC50 [1]: > 10.2 µM
AUC [2]: 0.87
IC50 [2]: > 20 µM
AUC [3]: 0.982
IC50 [3]: > 5 µM
AUC [4]: 0.839
IC50 [4]: 14.7 µM
AUC [5]: 0.838
IC50 [5]: 9.31 µM
AUC [6]: 0.483
IC50 [6]: 0.0569 µM
AUC [7]: 0.814
IC50 [7]: 3.61 µM
AUC [8]: 0.982
IC50 [8]: > 10 µM
AUC [9, 11]: 0.974
IC50 [9, 11]: > 50 µM
AUC [9, 12]: 0.896
IC50 [9, 12]: > 64 µM
AUC [10]: 0.81
IC50 [10]: 0.137 µM

SNU-C1 (large intestine, suspension)
AUC [1]: 0.949
IC50 [1]: > 10.2 µM
AUC [2]: 0.955
IC50 [2]: > 20 µM
AUC [3]: 0.927
IC50 [3]: > 5 µM
AUC [4]: 0.97
IC50 [4]: > 16 µM
AUC [5]: 0.93
IC50 [5]: > 10.2 µM
AUC [6]: 0.616
IC50 [6]: 0.154 µM
AUC [7]: 0.965
IC50 [7]: > 5.12 µM
AUC [8]: 0.759
IC50 [8]: 5.11 µM
AUC [9, 11]: 0.969
IC50 [9, 11]: > 50 µM
AUC [9, 12]: 0.873
IC50 [9, 12]: > 64 µM
AUC [10]: 0.948
IC50 [10]: > 0.2 µM

KMRC-20 (kidney, adherent)
AUC [1]: 0.98
IC50 [1]: > 10.2 µM
AUC [2]: 0.928
IC50 [2]: > 20 µM
AUC [3]: 0.986
IC50 [3]: > 5 µM
AUC [4]: 0.979
IC50 [4]: > 16 µM
AUC [5]: 0.979
IC50 [5]: > 10.2 µM
AUC [6]: 0.657
IC50 [6]: 0.176 µM
AUC [7]: 0.987
IC50 [7]: > 5.12 µM
AUC [8]: 0.982
IC50 [8]: > 10 µM
AUC [9, 11]: 0.663
IC50 [9, 11]: 8.95 µM
AUC [9, 12]: 0.797
IC50 [9, 12]: 30.8 µM
AUC [10]: 0.396
IC50 [10]: 0.00645 µM
